Assay results as given in paper PMC12136788.
Some of the results follow.

T1: UNK ZnF1-3 (human, UniProt Q9C0B0 31-174)
T1 sequence: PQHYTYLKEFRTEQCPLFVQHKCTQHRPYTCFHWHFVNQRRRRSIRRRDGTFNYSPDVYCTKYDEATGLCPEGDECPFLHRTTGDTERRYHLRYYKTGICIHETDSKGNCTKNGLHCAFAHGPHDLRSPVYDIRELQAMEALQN

B1: 107179118_107179238_2844_3pUTR_ENSMUSG00000047496_ENSMUST00000058688|mouse|control|control (ssRNA)
RNA: GGGAGUUCUACAGUCCGACGAUCAGCACACGUCUGUUGUGCAGCUUGAAGAUGAAGGCCAGCAGGCCAAUCAUGCUUCCAUGUUCCAGGGCUGCUUCUGACCUUGCUUAGAUCCUGUGCCACUCUUUCCUUUCCUUUGCCUUUCAACAGAGGAUUGAGCAUCA
B2: chr4:17845017:17845018:+_ENSG00000109805_ENST00000514176|hu_mus|hu_hu_hu_mus_False|1_108 (ssRNA)
RNA: GGGAGUUCUACAGUCCGACGAUCGCUUCCUAACUUAGUAUCUUCAUUAAGGAACUCUGCAAGGUUAAGUUUACUUUUCUGUAGCGCAGCUGUUUUGGCUCGUCUGGGUAAUCUCAUCUUCAUUUCUGAUGGUGGUUUGGAACUCAACAGAGGAUUGAGCAUCA
B3: chr12:70442348:70442349:-_ENSMUSG00000020982_ENSMUST00000021368|mus_mus|FALSE|FALSE (ssRNA)
RNA: GGGAGUUCUACAGUCCGACGAUCAACCGGGUCUCCUUGAGCUUGAGCUUCUUUCACAAUCACUCCGAUUUCUGUCCAGUCUAUCUGGUUGGCCAACGCACUUCGGACUACCUGAAUGGCUCUGUCCACUAUCUGCAGGUUCAUCAACAGAGGAUUGAGCAUCA
B4: chr7:75932113:75932114:+_ENSG00000106211_ENST00000248553|hu_hu|hu_hu_hu_mus_False|38_98 (ssRNA)
RNA: GGGAGUUCUACAGUCCGACGAUCCUGCGACCACUCAUCCGGCAGCCGGGGCACCCCGAAAGCUUGAUCGAAGAGGCGGCUGUGUGCAGGGUACCAGCGGAAGGGGUGUUCCCAGCUCGGGCUCCGCAGCAGCGAGAAGGGCACCAACAGAGGAUUGAGCAUCA
B5: chr1:17371331:17371332:-_ENSG00000117118_ENST00000375499|hu_mus|FALSE|FALSE (ssRNA)
RNA: GGGAGUUCUACAGUCCGACGAUCCGUCUGCAUUCGAGGUUUAUCUCCAGUCUUGUCUGGGUCCCAUCGGUAAAUGGCAAAUUUUUUGAUUCUGGGAGCUGCAGCAGCAGCUGUCUGUGCCCCUCGACAGGCCUGAAACUGCAGCAACAGAGGAUUGAGCAUCA
B6: 226340194_226340314_1211_3pUTR_ENSG00000182827_ENST00000366812|human|control|control (ssRNA)
RNA: GGGAGUUCUACAGUCCGACGAUCGAACAGUGACCACUUCUCCUCGGCCCACUGUAAUCACGGAAUCUGCAUCCUGCUGAAUCUUCUCUUUGAAGUCUUUGAUCUGAGGUCGUGUCCACAUGGAUGGAGCUGCUAUUACUGGAACAACAGAGGAUUGAGCAUCA
B7: 106961284_106961404_693_CDS_ENSMUSG00000035770_ENSMUST00000041769|mouse|control|control (ssRNA)
RNA: GGGAGUUCUACAGUCCGACGAUCCUCCUCCGGUGGAAUCUUCAUCUUGUCAAUGUGCUCCCGUAAAACACUAGCCCACUUCUGCAGAGACUCCAUUAUCGUCCAAGGUCGAGACAUGUCGGCAACAAAAAUGACCAGGGUCUCCAACAGAGGAUUGAGCAUCA
B8: chr6:124691279:124691280:-_ENSMUSG00000072772_ENSMUST00000004389|mus_mus|FALSE|FALSE (ssRNA)
RNA: GGGAGUUCUACAGUCCGACGAUCCAGUGAAAUUGGGAGGGGUUUUCCGACCGAAGUCAGAAAACCUGCUAGACAAAUUCUAAAAGAGCUGUAACACUUGCGGAAGUGCGUCUGUAGCGAGCCAGGGAAGGACAUCAACUCCACCAACAGAGGAUUGAGCAUCA
B9: chr18:32917252:32917253:-_ENSG00000172466_ENST00000399061|hu_hu|FALSE|FALSE (ssRNA)
RNA: GGGAGUUCUACAGUCCGACGAUCUUCUUAAACUUUCACAACAUUCAGAAGUUUUUCUGCAUUGUGUCUUCUCUGAUGUCUAAAAAGAUUUGAGCUUUGACUAUACGAUUUCCCACACUGAACGCAUUCAUAAGGUUUCUCCCCCAACAGAGGAUUGAGCAUCA
B10: chr17:40995140:40995141:+_ENSG00000131467_ENST00000293362|hu_hu|FALSE|FALSE (ssRNA)
RNA: GGGAGUUCUACAGUCCGACGAUCCAUUACGAUCCAUGGGUGAUAGGGUGAGGAGGAGGGGCAGUGGAACAGUCCAACAAACGAAACGGGAAACUGAGAAACACAUGGAGGGAAGGGGGAAGGGUUUUAGCUGGAAGGGAUCUGCAACAGAGGAUUGAGCAUCA
B11: chr4:155540527:155540528:-_ENSMUSG00000041936_ENSMUST00000154494|mus_mus|FALSE|FALSE (ssRNA)
RNA: GGGAGUUCUACAGUCCGACGAUCGCCCGGACGGAAAGGAGGCCAGGCCAGCAGUCCUUCUGGCCAACGUGCAGUCAAGAAAAUCAUAUAAAAAUGCAACAAGUUUACAAAAAUAGAAAAUAAUUACAGGAGGGAAGGUGGCAGCAACAGAGGAUUGAGCAUCA
B12: chr3:9412954:9412955:+_ENSG00000134077_ENST00000452837|hu_mus|hu_hu_hu_mus_False|8_38 (ssRNA)
RNA: GGGAGUUCUACAGUCCGACGAUCGGUUGAUAUCUCUUCUUUGAUGGCUGGAUUUUCAUAAUAGUCCAAGAUAUGUGAAUCUGAAGUGCUGCUGGCAAACUCUUUUUUACCAUCUUUCUCAUCUGCUUUGACUUCUUGUCCACACAACAGAGGAUUGAGCAUCA
B13: chr6:124414581:124414582:-_ENSMUSG00000008153_ENSMUST00000008297|mus_mus|motif|central (ssRNA)
RNA: GGGAGUUCUACAGUCCGACGAUCGCGGUGCUAAGCACGCCAGGCCAGGCGUUCCUAUCCCCUGGGAGCCUCAAGCCUGCGGAUGCCACCUUGGGGGAGAAAUGCAGAGACUACGAGGGAAGGGCAGGGGGACAAGAUCGGAAACAACAGAGGAUUGAGCAUCA
B14: chr7:86439405:86439406:+_ENSMUSG00000039202_ENSMUST00000037315|mus_mus|motif|central (ssRNA)
RNA: GGGAGUUCUACAGUCCGACGAUCUUCCUUGAAGGGGUGUCCAGGUGGGCCAAUCAGAUCUGAUCUUAUAUUCAAAUUAACCGGAAAGCUUCUCUCAUUGACUCCAGCAGUCCAACCCGCCCGGAGUCCGGUUCCCGCAGCUCCCAACAGAGGAUUGAGCAUCA

What follows are binders tested against T1, UNK ZnF1-3 (assay: nsRBNS (natural sequence RNA bind-n-seq); RBNS binding buffer (assumed for nsRBNS): 25 mM Tris pH 7.5, 150 mM KCl, 3 mM MgCl2, 0.01% Triton X-100, 500 ug/ml BSA, 20 U/ml SUPERase-In, 4 C; UNK is unkempt and MSI1 is Musashi-1; names of the RNAs are library labels; protein concentration not given here; high values mean tight binding).

Binder	binding signal [enrichment R]
B1	0.882
B2	0.592
B3	0.838
B4	1.58
B5	0.958
B6	0.952
B7	0.945
B8	0.864
B9	0.958
B10	2.12
B11	3.25
B12	0.239
B13	1.23
B14	0.865
